“And” between values parts separate entries of the source, which are not always exact repeats. Equal values may be shown once. About 310 (0.076%) of roughly 410,000 compounds were called active. This list was built around the results that the source calls inconclusive (neither active nor inactive); the mix of calls is not that of the screen. Calls follow the shape of the dose curve; as a rule, active = well fitted curve in the direction sought with a large enough effect; inconclusive = small, poorly fitted or top-dose-only effect; inactive = flat fitted curve, though single readings scatter. Potencies beside an inconclusive call are fits to weak or partial responses and may not hold up.
Target: DNA dC->dU-editing enzyme APOBEC-3G (Homo sapiens) (UniProt Q9HC16)
Experiment: qHTS for Inhibitors of Vif-A3G Interactions: qHTS; also: nearly all actives have a fitted effect of over 60% in size;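 as to activity, negative = active: hits raise eYFP signal because A3G escapes Vif-driven loss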
Conditions: HeLa A3G-eYFP + Vif (tagged APOBEC3G with the HIV-1 protein that degrades it), YFP fluorescence, overnight; series mostly up to 46.1 µM; activity, negative = active: at the top concentration
In short: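 HeLa cells stably expressing Vif and C-terminally eYFP-tagged A3G, seeded overnight at 37 deg C, then exposed to compound by pintool overnight at 37 deg C. Rise in yellow fluorescence (Ex 488/Em 500-530, Acumen) marks blocked Vif-driven A3G degradation.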
% is scaled to controls: 0 for no effect and ±100 for the full control effect; potency is read from the fitted curve at half-maximal effect; tags tell the direction and shape of the fitted curve.

UniProt Q9HC16, sequence (Q9HC16 whole entry, looked up): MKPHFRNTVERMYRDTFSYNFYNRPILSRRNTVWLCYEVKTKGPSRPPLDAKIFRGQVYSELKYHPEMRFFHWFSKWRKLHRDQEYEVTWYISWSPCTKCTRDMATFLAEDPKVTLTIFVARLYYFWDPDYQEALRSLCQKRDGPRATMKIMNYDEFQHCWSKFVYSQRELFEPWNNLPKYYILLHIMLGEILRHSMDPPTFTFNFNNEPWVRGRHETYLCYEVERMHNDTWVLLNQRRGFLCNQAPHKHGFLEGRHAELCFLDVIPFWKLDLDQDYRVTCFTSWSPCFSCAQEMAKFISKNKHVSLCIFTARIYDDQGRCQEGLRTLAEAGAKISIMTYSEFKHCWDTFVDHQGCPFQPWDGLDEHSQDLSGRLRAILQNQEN

SMILES	Potency	activity, negative = active
Cc1nc2ccc(S(=O)(=O)Nc3cc(-c4nc5cccnc5s4)ccc3C)cc2s1	inconclusive: 5.62 µM [inhibitor, full curve, poor fit]	–
COc1ccc(C2C(C#N)=C(N)Oc3c2ccc2cccnc32)cc1OC (centres undefined)	inconclusive: 2.51 µM [inhibitor, full curve, poor fit]	–
N#C/C(=C(/O)CCl)c1nc2c(s1)CCc1ccccc1-2	inconclusive: 28.2 µM [inhibitor, single point]	–
COc1cc(/C=C/[N+](=O)[O-])ccc1OCc1cccc(C(=O)O)c1	inconclusive: 28.2 µM [inhibitor, single point]	–
S=C1SCN(Cc2ccco2)CN1Cc1ccco1	inconclusive: 11.2 µM [inhibitor, partial curve]	–
COc1ccccc1NC(=O)c1ccc(NC(=O)COC(=O)C2(C)CC2(Cl)Cl)cc1 (centres undefined)	–	inactive: 0%
COc1cccc(CNCCSc2nnnn2C)c1OCc1ccc(F)cc1	inconclusive: 17.8 µM [inhibitor, partial curve, poor fit]	–
C#CCOCCOCCOCCNc1nc(N2CCN(C(=O)Cn3cc(CCCN=C(N)N)nn3)CC2)nc(N2CCN(C(=O)[C@H](CCCCN)n3cc(CC(C)O)nn3)CC2)n1 (some centres undefined)	–	inactive: -6.81%
Cc1ccc(Cl)cc1NC(=O)Cn1ncc2c(C)n(Cc3ccccc3F)c(C)c2c1=O	inconclusive: 35.5 µM [inhibitor, single point]	–
CC(=O)Nc1cccc(-c2ccnc3c2CC(C(=O)NCc2cccc(Cl)c2)O3)c1 (centres undefined)	inconclusive: 3.16 µM [inhibitor, full curve, poor fit]	–
C=CCn1c(Sc2ncc([N+](=O)[O-])s2)n[nH]c1=O	–	inactive: -11.2%
COC(=O)c1cn(C(=O)c2ccc(C)cc2)c2ccccc12	–	inactive: -22.6%
CCN1CCCC1CNCC(O)COc1ccc(C(C)(C)C)cc1C (centres undefined)	–	inactive: 4.43%
COc1ccc2cc(S(=O)(=O)c3ccccc3)c(=O)oc2c1	–	inactive: -21.8%
CC1(C)Cc2c(sc3ncnc(NNC(=S)NCc4ccccc4)c23)CO1	inconclusive: 1.41 µM [inhibitor, full curve, poor fit]	–
C#CCN(C[C@@H]1[C@@H](OC(=O)NCC2CCCCC2)[C@@H](OC(=O)NCC2CCCCC2)Cn2c(=O)ccc(=O)n21)S(=O)(=O)c1ccc(C)cc1	inconclusive: 2.82 µM [inhibitor, partial curve, poor fit]	–
CN(C)CCNC(=O)c1ccc(Cn2c(=O)c3cccn3c3cccnc32)cc1	–	inactive: -2.04%
CN(C)c1ccc(/C=C2\SC(=S)N(Nc3ncc(C(F)(F)F)cc3Cl)C2=O)cc1	inconclusive: 3.55 µM [inhibitor, full curve, poor fit]	–
O=C(CNC(=O)c1ccccc1F)N/N=C/c1cc(Br)ccc1OC(=O)/C=C/c1ccco1	–	inactive: -30%
COc1ccc(-c2ccc(CCC(=O)O)n2-c2cc(Cl)ccc2O)cc1	inconclusive: 20 µM [inhibitor, single point]	–
COc1ccccc1-c1cc(C(F)(F)F)nc(S(=O)(=O)CCCC(=O)Nc2ccc(F)cc2F)n1	inconclusive: 22.4 µM [inhibitor, single point]	–
COc1ccc(-c2csc(NC3OC(=O)c4c3ccc(OC)c4OC)n2)cc1OC (centres undefined)	inconclusive: 10 µM [inhibitor, partial curve]	–

SMILES	Potency	activity, negative = active
Cc1ccc(N2C(=O)c3cccc4c(N5CCN(C)CC5)ccc(c34)C2=O)c2cccnc12	inconclusive: 7.08 µM [inhibitor, full curve, poor fit]	–
Cc1nc(NC(=O)/C=C/c2ccco2)sc1C	inconclusive: 5.62 µM [inhibitor, partial curve]	–
COc1ccc(CCN2C(=O)c3ccccc3NC2c2cc(Cl)c(O)c(OC)c2)cc1 (centres undefined)	inconclusive: 3.55 µM [inhibitor, full curve]	–
CN(Cc1ccccc1)CC1CCCN(CCc2ccccc2F)C1 (centres undefined)	–	inactive: -5.17%
Cn1nnc2c[n+](CC(=O)c3ccc(Cl)cc3)cc(Br)c21	inconclusive: 17.8 µM [inhibitor, partial curve, poor fit]	–
CC(=O)N1c2ccc(S(=O)(=O)NCCC(=O)NC3CCCC(C)C3C)cc2CC1C (centres undefined)	–	inactive: 3.15%
Oc1ccccc1CNc1ncc(Br)cc1Br	inconclusive: 22.4 µM [inhibitor, single point]	–
CCOC(=O)CCc1c(C)c2cc3c(c(C)c2oc1=O)OCN(CCc1ccccc1OC)C3	–	inactive: 1.39%
O=[N+]([O-])c1ccc2nc(NS(=O)(=O)c3ccc(F)cc3)sc2c1	–	inactive: -14%
Cc1cc(C)n2nc(C(=O)N/N=C/c3ccccc3Cl)nc2n1	–	inactive: 1.2%
CCOC(=O)CC1(C)OCC(C[N+]2(C)CCCCC2)O1 (centres undefined)	–	inactive: 1.95%
C/C(=N/NC(=O)COc1cc(C)ccc1C(C)C)C(=O)O	inconclusive: 6.31 µM [inhibitor, partial curve, poor fit]	–
CCN1CCN(Cc2ccc(NC(=O)c3cc(NC(=O)c4cc5cccc(OC)c5o4)cc(OC)c3)cc2C(F)(F)F)CC1	inactive and inconclusive: 35.5 µM [inhibitor, single point]	–
O=C(O)c1ccc(COc2ccc3ccccc3c2/C=C2/NC(=O)N(Cc3ccc(F)cc3)C2=O)cc1	–	inactive: -14.2%
O=S(=O)(NNc1ncc(C(F)(F)F)cc1Cl)c1ccc(F)cc1F	–	inactive: 0.793%
O=C(N/N=C/c1ccc(Cl)c(Cl)c1)c1ccc2nc[nH]c2c1	inconclusive: 5.62 µM [inhibitor, full curve]	–
Cc1nn(-c2ccccc2)c(Cl)c1/C=N/NC(=O)c1nn(C)cc1[N+](=O)[O-]	inconclusive: 15.8 µM [inhibitor, single point]	–
CC1CC(C)CN(CCCNC(=O)c2ccc3c(c2)N(Cc2ccccc2)C(=O)c2ccccc2S3=O)C1 (centres undefined)	–	inactive: -4.8%
C=CCn1c(SCc2cc(C(C)=O)ccc2OCC)nc2ccccc2c1=O	inconclusive: 0.794 µM [inhibitor, full curve, poor fit]	–
COc1ccc(-n2cc3c(-c4cccc(Br)c4)nnc(C)c3n2)cc1	inconclusive: 7.94 µM [inhibitor, partial curve]	–
Cc1[nH]c2c(C(=O)N3CCCC(CCC(=O)NCc4ccccc4F)C3)cccc2c1C (centres undefined)	inconclusive: 20 µM [inhibitor, single point]	–
CC(C)OC(=O)c1c2c(n3ccccc13)C(=O)c1ccccc1C2=O	inconclusive: 2.51 µM [inhibitor, full curve, poor fit]	–

SMILES	Potency	activity, negative = active
O=C(CSc1ccc2ccccc2c1)NCCc1ccc(O)c(O)c1	inconclusive: 20 µM [inhibitor, single point]	–
CCOc1ccc(N/C(N)=N/c2nc(CSc3nnc(C)s3)cc(=O)[nH]2)cc1	inconclusive: 0.562 µM [inhibitor, full curve, poor fit]	–
CCN1CCCC1CNC(=O)c1ccc2c(c1)NC(=O)/C(=C\c1ccc(C)cc1)S2 (centres undefined)	inconclusive: 35.5 µM [inhibitor, single point]	–
COC(=O)Nc1nc2ccc(SC(C)C)cc2[nH]1	inconclusive: 0.562 µM [inhibitor, full curve, poor fit]	–
O=C(c1ccc2ccccc2c1)c1c[nH]cc1-c1ccccc1	inconclusive: 35.5 µM [inhibitor, single point]	–
CCN1CCc2c(sc(-n3cccc3)c2C(C)NC(=O)Nc2ccc(C(=O)OC)cc2)C1 (centres undefined)	inconclusive: 35.5 µM [inhibitor, single point]	–
CCOc1ccc(NCCC(=O)c2ccc3c(c2)OCO3)cc1	inconclusive: 35.5 µM [inhibitor, single point]	–
COc1cc(CNc2ccccc2SC)cc(OC)c1OC	–	inactive: -7.92%
COc1ccc(-c2nc3c4ccccc4ccn3c2Cc2cccc(F)c2)cc1OC	inconclusive: 35.5 µM [inhibitor, single point]	–
c1cc2c(cc1C1=Nn3c(nnc3C3CCCCC3)SC1)OCO2	inconclusive: 10 µM [inhibitor, partial curve, poor fit]	–
COc1ccc(NC(=O)C(=O)NCC2CCCN2S(=O)(=O)c2cc(C)ccc2C)cc1 (centres undefined)	inconclusive: 2.24 µM [inhibitor, full curve, poor fit]	–
Cc1ccc(C2C=C(c3ccccc3)Nc3nc(NS(C)(=O)=O)nn32)cc1 (centres undefined)	inconclusive: 17.8 µM [inhibitor, single point]	–
O=S(=O)(Nc1cccc2cccnc12)c1cccc2cccnc12	inconclusive: 35.5 µM [inhibitor, single point]	–
CCOc1cccc(C2C(C(=O)c3ccc(C)o3)=C(O)C(=O)N2c2nccs2)c1 (centres undefined)	–	inactive: 3.41%
CCOc1c(Cl)cc(CNc2ccc3[nH]c(=O)[nH]c3c2)cc1OC	inconclusive: 11.2 µM [inhibitor, partial curve]	–
CCN(C)c1ccc(/C=N\n2nnnc2N)cc1	inconclusive: 12.6 µM [inhibitor, partial curve]	–
COc1cc(-c2noc(C)c2/C=C/c2ccc(N)cc2)cc(OC)c1OC	inconclusive: 562 nM [inhibitor, full curve, poor fit] and inconclusive: 31.6 µM [inhibitor, partial curve, poor fit]	–
Cc1[nH]c(=O)c(C(=O)/C=C/c2ccccc2F)c2c1CCCC2	inconclusive: 10 µM [inhibitor, partial curve, poor fit]	–
O=C(c1ccc(S(=O)(=O)Cc2cc(F)ccc2F)c([N+](=O)[O-])c1)N1CCOCC1	inconclusive: 22.4 µM [inhibitor, single point]	–
ClCc1nc2ccccc2c2ccccc12	inconclusive: 22.4 µM [inhibitor, single point]	–

— PubChem BioAssay AID602310 (National Center for Advancing Translational Sciences (NCATS), 2012)
